Experimental data from PMC7031403, “A molecular switch regulating transcriptional repression and activation of PPARγ” (Nature Communications, 2020).

Tested on: PPARγ LBD (WT or mutant) with NCoR ID2 peptide

O=C(Nc1ccncc1)c1cc([N+](=O)[O-])ccc1Cl [T0070907]
effect on binding of corepressor ID2 peptides to the PPARγ LBD (WT, NCoR ID2 and SMRT ID2 peptides): enhances the binding
change in corepressor-peptide interaction, mutants (Y327A and K367A): no change in corepressor-peptide interaction
